# In all, about 18,000 sequences were measured (“TetR repression strength (sort-seq, GFP reporter)”: median about 0.23, highest 2% from about 0.68 on). Some of the results follow.
# Target: TetR (class B, Tn10) (UniProt P04483)
# Assay: TetR repression strength (sort-seq, GFP reporter) (relative to tetO2 = 1); higher = stronger repression
# Details: E. coli
# Method in brief: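 Repression strength is the top bin index plus one minus the read-weighted mean bin, relative to the unaltered operator's value. A low-copy library in E. coli SIG10-MAX randomized eight operator positions between a constitutive promoter and sfGFP, with TetR expressed constitutively; cells grew 5 h at 37 °C in LB with 50 µg/mL chloramphenicol and 10^6 were FACS-sorted into 13 bins that were each Illumina-sequenced. Three independent transformations were averaged, keeping only members with ≥30 reads in all replicates and CV ≤0.5.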
# UniProt P04483, sequence (P04483 whole entry): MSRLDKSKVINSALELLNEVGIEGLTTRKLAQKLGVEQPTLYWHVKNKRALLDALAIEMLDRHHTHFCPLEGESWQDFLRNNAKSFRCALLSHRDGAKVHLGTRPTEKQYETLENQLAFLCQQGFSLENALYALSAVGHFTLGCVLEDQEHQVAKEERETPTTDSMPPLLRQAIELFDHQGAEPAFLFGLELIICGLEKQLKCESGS
row,Sequence,TetR repression strength
1,TCCCCACGAGTGAACGAGA,0.433
2,TCCCTTTGAGTCCGGGAGA,0.253
3,TCCCTTCTAGTATGAGAGA,0.406
4,TCCCGGGAAGTAGGTGAGA,0.209
5,TCCCCAGAAGTGGGAGAGA,0.125
6,TCCCTACAAGTCGCAGAGA,0.217
7,TCCCCGAAAGTTTGTGAGA,0.216
8,TCCCTATTAGTGCTAGAGA,0.466
9,TCCCACTAAGTATCTGAGA,0.274
10,TCCCCATCAGTCCGCGAGA,0.371
11,TCCCGCTGAGTAGCTGAGA,0.385
12,TCCCAATAAGTTCTAGAGA,0.306
13,TCCCCAAGAGTAGACGAGA,0.17
14,TCCCTTTTAGTGGGTGAGA,0.26
15,TCCCTGGGAGTTGCGGAGA,0.467
16,TCCCAAATAGTGGTAGAGA,0.284
17,TCCCAATTAGTCTAGGAGA,0.281
18,TCCCACGTAGTGATAGAGA,0.354
19,TCCCGTAAAGTGGCCGAGA,0.101
20,TCCCCCAGAGTGGATGAGA,0.216
21,TCCCGTATAGTTAGGGAGA,0.018
22,TCCCTCTAAGTAAGCGAGA,0.17
23,TCCCGTCCAGTGACCGAGA,0.21
24,TCCCGGAAAGTCTGAGAGA,0.238
25,TCCCATAAAGTTTGCGAGA,0.25
26,TCCCGGGTAGTTGAGGAGA,0.213

row,Sequence,TetR repression strength
1,TCCCGGAAAGTAGCGGAGA,0.175
2,TCCCGCGCAGTCGCAGAGA,0.226
3,TCCCGAGTAGTGATGGAGA,0.153
4,TCCCGCCCAGTTATAGAGA,0.351
5,TCCCCTAGAGTGGATGAGA,0.14
6,TCCCACGTAGTGAGGGAGA,0.241
7,TCCCATTAAGTATTAGAGA,0.438
8,TCCCCTCCAGTGACAGAGA,0.521
9,TCCCAAGGAGTAATCGAGA,0.104
10,TCCCTGTCAGTGTAAGAGA,0.426
11,TCCCCAGTAGTCAGTGAGA,0.247
12,TCCCGTCCAGTTCGTGAGA,0.096
13,TCCCAAAGAGTATCAGAGA,0.111
14,TCCCTGCAAGTTGTTGAGA,0.228
15,TCCCGGATAGTGTAGGAGA,0.373
16,TCCCGGTCAGTCACCGAGA,0.669
17,TCCCCTGGAGTGGTAGAGA,0.109
18,TCCCGGCGAGTACCCGAGA,0.218
19,TCCCGGATAGTTCGAGAGA,0.0488
20,TCCCCGCGAGTGTCGGAGA,0.14
21,TCCCTATCAGTAAGTGAGA,0.545
22,TCCCCGTAAGTAAGCGAGA,0.25
23,TCCCGCGGAGTAGTCGAGA,0.148
24,TCCCGGCTAGTTGAGGAGA,0.23
25,TCCCTTTAAGTTCAGGAGA,0.211
26,TCCCAACCAGTCATGGAGA,0.159

row,Sequence,TetR repression strength
1,TCCCAACAAGTTCTCGAGA,0.493
2,TCCCTGATAGTTGATGAGA,0.51
3,TCCCAGGTAGTGCTGGAGA,0.275
4,TCCCCCGTAGTATAAGAGA,0.384
5,TCCCTGCCAGTCTGGGAGA,0.111
6,TCCCCACAAGTACAAGAGA,0.465
7,TCCCTATGAGTGTAAGAGA,0.162
8,TCCCACGTAGTCCGGGAGA,0.0837
9,TCCCGGTCAGTGTTAGAGA,0.609
10,TCCCCGCAAGTCGAAGAGA,0.294
11,TCCCTACGAGTCGTGGAGA,0.334
12,TCCCGGCGAGTGTAGGAGA,0.315
13,TCCCCGAGAGTGGGCGAGA,0.17
14,TCCCCAGAAGTCCACGAGA,0.256
15,TCCCCGTAAGTAAGGGAGA,0.22
16,TCCCCAATAGTCCACGAGA,0.316
17,TCCCGTGAAGTGGGGGAGA,0.273
18,TCCCAAGCAGTCTGCGAGA,0.335
19,TCCCAACCAGTGAAGGAGA,0
20,TCCCAGCGAGTCGGGGAGA,0.099
21,TCCCTAGGAGTCATGGAGA,0.127
22,TCCCACGCAGTGTGAGAGA,0.386
23,TCCCGTTTAGTTCGCGAGA,0.208
24,TCCCTGCGAGTTGTGGAGA,0.0709
25,TCCCTGAGAGTACGAGAGA,0.231
26,TCCCAGAAAGTCGGGGAGA,0.0115

row,Sequence,TetR repression strength
1,TCCCTGCGAGTTGATGAGA,0.158
2,TCCCGCGAAGTGGCTGAGA,0.178
3,TCCCAACGAGTCCGTGAGA,0.183
4,TCCCCGTAAGTGAGAGAGA,0.149
5,TCCCCTTCAGTCCCAGAGA,1.12
6,TCCCCCCGAGTTCGCGAGA,0.207
7,TCCCAGACAGTTCACGAGA,0.151
8,TCCCGTTGAGTTGAGGAGA,0.119
9,TCCCGCGGAGTAAGGGAGA,0.252
10,TCCCGTGTAGTGATGGAGA,0.222
11,TCCCCCAGAGTGCGGGAGA,0.16
12,TCCCGCGGAGTCCGCGAGA,0.181
13,TCCCCGCCAGTCCGGGAGA,0.232
14,TCCCGAGTAGTGGGTGAGA,0.256
15,TCCCTCATAGTGAGCGAGA,0.0621
16,TCCCGACGAGTGTCGGAGA,0.249
17,TCCCTCTTAGTGGTAGAGA,0.28
18,TCCCAACCAGTCATTGAGA,0.27
19,TCCCGGTCAGTGCTAGAGA,0.638
20,TCCCTCCAAGTGGCGGAGA,0.113
21,TCCCGTTTAGTTTTGGAGA,0.55
22,TCCCCTACAGTAATTGAGA,0.19
23,TCCCTTAGAGTTTTCGAGA,0.176
24,TCCCGCTTAGTGACTGAGA,0.291

# Source: a collection of fitness landscapes (doi:10.1038/s41467-024-54723-y)
